Structures are written as SMILES. Records with an inconclusive call do not appear. Unless noted, calls follow the shape of the dose curve; as a rule, active = well fitted curve in the direction sought with a large enough effect in the repeat runs; inconclusive = weak or mixed curves; inactive = no such curve, though single readings can be large; an effect the other way counts as inactive or inconclusive. Where a structure was tested more than once in an assay, its records may differ in their call. For part of its entries the source gives two or more results. This is not the full list of results. There may be further records. The records of an entry repeat one measurement in other runs, samples, wells, individuals or studies. A tag in brackets gives the origin of a value. Letters hold for one entry only.

Assay [1] is described as follows: qHTS assay for small molecules that induce genotoxicity in human embryonic kidney cells expressing luciferase-tagged ATAD5 - cell viability (AID 651634; calls by dose curve; also: nearly all actives have a fitted effect of over 25% in size). The procedure, abridged:
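Live-cell protease activity (CellTiter-Fluor, fluorescence) indicates viability. HEK293T cells with luciferase-tagged ATAD5; 15.5 hr compound treatment at 37C.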

Assay [2] can be described thus: qHTS RealTime-Glo MT Cell Viability Assay in HEK293 cells - 0 hour (AID 1224880). Also: nearly all actives have a fitted effect of over 45% in size. The text has this:
U.S. Tox21 Program National Center for Advancing Translational Sciences [NCATS] NIH Chemical Genomics Center [NCGC] U.S. Environmental Protection Agency [EPA] National Institutes of Environmental Health Sciences [NIEHS] National Toxicology Program [NTP] U.S. Food and Drug Administration [FDA] Tox21 Assay Overview: Measure of cell viability is critical in the cell-base assay. Analysis of cell viability is necessary for the characterization of cell responses to cytotoxic drugs and environmental stress. A RealTime-Glo MT Cell Viability Assay to monitor cell viability in real time of continues cell culture during 40 hours of compound treatment was used to screen Tox21 10K library compounds in Hek293 cells. The RealTime-Glo MT Cell Viability Assay is a nonlytic, homogeneous, bioluminescent method to measure cell viability in real time using a simple, plate-based method. The assay involves adding NanoLuc luciferase and a cell-permeant prosubstrate to cells in culture. […]
Tox21 Assay Protocol Summary: The mixture of Hek293 cell suspension and reagents were dispensed at 600cells/6 ul/well in 1536-well tissue culture treated black solid bottom plates using a Multidrop dispenser. […] The luminescence intensity were measured at 0h, 8h, 16h, 24h, 32h and 40h time points using ViewLux plate reader during compound treatment.

A short description of assay [3]: qHTS assay to identify small molecule antagonists of the thyroid receptor (TR) signaling pathway (AID 743065). Also: nearly all actives have a fitted effect of over 55% in size. Summed up: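 GH3.TRE-Luc rat pituitary cells (two TREs driving luciferase) were dosed with compound, then stimulated with 1 nM T3 (final) for 23.5 h at 37 C. ONE-Glo luminescence was the read-out, with CellTiter-Fluor fluorescence as the cytotoxicity counter-screen.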

Assay [4] can be described thus: A CellTox Green Cytotoxicity Assay to monitor cytotoxicity in HEK293 cells - 24 hour (AID 1224875). Also: nearly all actives have a fitted effect of over 45% in size. Summed up: (§1)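 Each value comes from one timepoint of a single continuous run in which HEK293 cells with CellTox Green were exposed to compound for up to 40 h at 37 C, dye fluorescence rising with cell death.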
Assay [5] is described as follows: A CellTox Green Cytotoxicity Assay to monitor cytotoxicity in HEK293 cells - 16 hour (AID 1224888). Also: nearly all actives have a fitted effect of over 35% in size. The procedure, abridged: as §1
A short description of assay [6]: qHTS assay to identify small molecule antagonists of the progesterone receptor (PR) signaling pathway - cell viability counter screen (AID 1346798). Also: nearly all actives have a fitted effect of over 50% in size. Summed up: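 Same-well multiplex: after 16 hr at 37C with compound and R5020 stimulation, HEK293T cells carrying a UAS-bla reporter received LiveBLAzer substrate (2 hr RT), then CellTiter-Glo (30 min RT) for luminescent viability.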
Potency is read from the fitted curve at half-maximal effect.

Regarding `COC(=O)C1=C(C)NC(C)=C(C(=O)OC)C1c1ccccc1[N+](=O)[O-]`, the Potency result is “inactive [sample A] and active: 54.5 µM [sample B]” in assay [1]; “active: 24.6 µM [sample A] and inactive [sample B]” in assay [2].

As for `COC(=O)c1c(Cl)c(Cl)c(C(=O)OC)c(Cl)c1Cl`, the Potency result in assay [3] was “inactive [sample A] and active: 48.6 µM [sample B]”; in assay [4] it was “inactive [sample A] and active: 43.6 µM [sample B]”.

On to `CCCCOCCOCCOCc1cc2c(cc1CCC)OCO2`, for which the Potency entry in assay [3] is “inactive [sample A] and active: 30.6 µM [sample B]”.

With `O=c1n(CCO)c(=O)n(CCO)c(=O)n1CCO`, the Potency result was “inactive [sample A] and active: 38.9 µM [sample B]” in assay [4]; “inactive [sample A] and active: 38.9 µM [sample B]” in assay [5]; “inactive [sample A] and active: 54.5 µM [sample B]” in assay [6].

For the origin of these results see PubChem BioAssay (Tox21).
